# The other results are listed elsewhere or left out.
# B1: Ficolin B (Rattus norvegicus), P57756 (protein)
# chain: MVLGSAALFVLSLCVTELTLHAADTCPEVKVLDLEGSNKLTILQGCPGLPGALGPKGEAGAKGDRGESGLPGHPGKAGPTGPKGDRGEKGVRGEKGDTGPSQSCATGPRTCKELLTRGYFLTGWYTIYLPDCRPLTVLCDMDTDGGGWTVFQRRIDGTVDFFRDWTSYKQGFGSQLGEFWLGNDNIHALTTQGTNELRVDLADFDGNHDFAKYSSFQIQGEAEKYKLILGNFLGGGAGDSLTSQNNMLFSTKDQDNDQGSSNCAVRYHGAWWYSDCHTSNLNGLYLRGLHKSYANGVNWKSWKGYNYSYKVSEMKVRLI
# Experiments:
# Assay in all cases: glycan array binding signal (z-score within array); higher = stronger binding
# Conditions in all cases: glycan notation: IUPAC condensed, linker removed
# Neu5Ac(a2-6)Gal(b1-4)Glc = biological target: Neu5Ac(a2-6)Gal(b1-4)Glc
# Summary of the method: (§1)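 The Consortium for Functional Glycomics database supplied 3228 glycan arrays, of which those lacking an available protein sequence were dropped. The binding signal, a within-array Z-score, was averaged across arrays of the same protein sequence and across linkers. Negative scores can be read as non-binding.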
# [1] = biological target: Neu5Ac(a2-6)Gal(b1-4)GlcNAc
# Summary of the method: as §1
# [2] = biological target: Neu5Ac(a2-6)Gal(b1-4)GlcNAc(b1-2)Man(a1-3)Man(b1-4)GlcNAc(b1-4)GlcNAc
# Summary of the method: as §1
# [3] = biological target: Neu5Ac(a2-6)Gal(b1-4)GlcNAc(b1-2)Man(a1-3)[Gal(b1-4)GlcNAc(b1-2)Man(a1-6)]Man(b1-4)GlcNAc(b1-4)GlcNAc
# Summary of the method: as §1
# [4] = biological target: Neu5Ac(a2-6)Gal(b1-4)GlcNAc(b1-2)Man(a1-3)[GlcNAc(b1-2)Man(a1-6)]Man(b1-4)GlcNAc(b1-4)GlcNAc
# Summary of the method: as §1
# [5] = biological target: Neu5Ac(a2-6)Gal(b1-4)GlcNAc(b1-2)Man(a1-3)[GlcNAc(b1-2)Man(b1-4)GlcNAc(b1-2)Man(a1-6)]Man(b1-4)GlcNAc(b1-4)GlcNAc
# Summary of the method: as §1
# [6] = biological target: Neu5Ac(a2-6)Gal(b1-4)GlcNAc(b1-2)Man(a1-3)[Man(a1-6)]Man(b1-4)GlcNAc(b1-4)GlcNAc
# Summary of the method: as §1
# [7] = biological target: Neu5Ac(a2-6)Gal(b1-4)GlcNAc(b1-2)Man(a1-3)[Neu5Ac(a2-6)Gal(b1-4)GlcNAc(b1-2)Man(a1-6)]Man(b1-4)GlcNAc(b1-4)GlcNAc
# Summary of the method: as §1
# [8] = biological target: Neu5Ac(a2-6)Gal(b1-4)GlcNAc(b1-2)Man(a1-6)Man(b1-4)GlcNAc(b1-4)GlcNAc
# Summary of the method: as §1
# [9] = biological target: Neu5Ac(a2-6)Gal(b1-4)GlcNAc(b1-2)Man(a1-6)[Gal(b1-4)GlcNAc(b1-2)Man(a1-3)]Man(b1-4)GlcNAc(b1-4)GlcNAc
# Summary of the method: as §1
# [10] = biological target: Neu5Ac(a2-6)Gal(b1-4)GlcNAc(b1-2)Man(a1-6)[GlcNAc(b1-2)Man(a1-3)]Man(b1-4)GlcNAc(b1-4)GlcNAc
# Summary of the method: as §1
# [11] = biological target: Neu5Ac(a2-6)Gal(b1-4)GlcNAc(b1-2)Man(a1-6)[Man(a1-3)]Man(b1-4)GlcNAc(b1-4)GlcNAc
# Summary of the method: as §1
# [12] = biological target: Neu5Ac(a2-6)Gal(b1-4)GlcNAc(b1-3)Gal(b1-3)GlcNAc
# Summary of the method: as §1
# [13] = biological target: Neu5Ac(a2-6)Gal(b1-4)GlcNAc(b1-3)Gal(b1-4)GlcNAc
# Summary of the method: as §1
# [14] = biological target: Neu5Ac(a2-6)Gal(b1-4)GlcNAc(b1-3)Gal(b1-4)GlcNAc(b1-3)Gal(b1-4)GlcNAc
# Summary of the method: as §1
# [15] = biological target: Neu5Ac(a2-6)Gal(b1-4)GlcNAc(b1-3)Gal(b1-4)[Fuc(a1-3)]GlcNAc(b1-3)Gal(b1-4)[Fuc(a1-3)]GlcNAc
# Summary of the method: as §1
# [16] = biological target: Neu5Ac(a2-6)Gal(b1-4)GlcNAc(b1-3)GalNAc
# Summary of the method: as §1
# [17] = biological target: Neu5Ac(a2-6)Gal(b1-4)GlcNAc6S
# Summary of the method: as §1
# Neu5Ac(a2-6)GalNAc = biological target: Neu5Ac(a2-6)GalNAc
# Summary of the method: as §1
# [18] = biological target: Neu5Ac(a2-6)GalNAc(b1-4)GlcNAc
# Summary of the method: as §1
# [19] = biological target: Neu5Ac(a2-6)GlcNAc(b1-4)GlcNAc
# Summary of the method: as §1
# [20] = biological target: Neu5Ac(a2-6)GlcNAc(b1-4)GlcNAc(b1-4)GlcNAc
# Summary of the method: as §1
# Neu5Ac(a2-8)Neu5Ac = biological target: Neu5Ac(a2-8)Neu5Ac
# Summary of the method: as §1
# [21] = biological target: Neu5Ac(a2-8)Neu5Ac(a2-3)Gal(b1-4)Glc
# Summary of the method: as §1
# [22] = biological target: Neu5Ac(a2-8)Neu5Ac(a2-3)[GalNAc(b1-4)]Gal(b1-4)Glc
# Summary of the method: as §1
# [23] = biological target: Neu5Ac(a2-8)Neu5Ac(a2-8)Neu5Ac
# Summary of the method: as §1
# [24] = biological target: Neu5Ac(a2-8)Neu5Ac(a2-8)Neu5Ac(a2-3)Gal(b1-4)Glc
# Summary of the method: as §1
# [25] = biological target: Neu5Ac(a2-8)Neu5Ac(a2-8)Neu5Ac(a2-3)[GalNAc(b1-4)]Gal(b1-4)Glc
# Summary of the method: as §1
# [26] = biological target: Neu5Ac(a2-8)Neu5Ac(a2-8)Neu5Ac(a2-8)Neu5Ac(a2-3)[GalNAc(b1-4)]Gal(b1-4)Glc
# Summary of the method: as §1
# [27] = biological target: Neu5Ac(b2-6)Gal(b1-4)GlcNAc
# Summary of the method: as §1
# Neu5Ac(b2-6)GalNAc = biological target: Neu5Ac(b2-6)GalNAc
# Summary of the method: as §1
# [28] = biological target: Neu5Ac9Ac(a2-3)Gal(b1-3)GlcNAc
# Summary of the method: as §1
# [29] = biological target: Neu5Ac9Ac(a2-3)Gal(b1-4)GlcNAc
# Summary of the method: as §1
# [30] = biological target: Neu5Ac9Ac(a2-6)Gal(b1-4)GlcNAc
# Summary of the method: as §1
# [31] = biological target: Neu5Gc(a2-3)Gal(b1-3)GlcNAc
# Summary of the method: as §1
# [32] = biological target: Neu5Gc(a2-3)Gal(b1-3)[Fuc(a1-4)]GlcNAc
# Summary of the method: as §1
# Neu5Gc(a2-3)Gal(b1-4)Glc = biological target: Neu5Gc(a2-3)Gal(b1-4)Glc
# Summary of the method: as §1
# [33] = biological target: Neu5Gc(a2-3)Gal(b1-4)GlcNAc
# Summary of the method: as §1
# [34] = biological target: Neu5Gc(a2-3)Gal(b1-4)[Fuc(a1-3)]GlcNAc
# Summary of the method: as §1
# [35] = biological target: Neu5Gc(a2-6)Gal(b1-4)GlcNAc
# Summary of the method: as §1
# Neu5Gc(a2-6)GalNAc = biological target: Neu5Gc(a2-6)GalNAc
# Summary of the method: as §1
# [36] = biological target: Neu5Gc(b2-6)Gal(b1-4)GlcNAc
# Summary of the method: as §1
binder,measurement,setting,value
B1,glycan array binding signal (z-score),Neu5Ac(a2-6)Gal(b1-4)Glc,-0.202
same,glycan array binding signal (z-score),[1],-0.17
same,glycan array binding signal (z-score),[2],-0.173
same,glycan array binding signal (z-score),[3],-0.193
same,glycan array binding signal (z-score),[4],-0.22
same,glycan array binding signal (z-score),[5],0.578
same,glycan array binding signal (z-score),[6],-0.201
same,glycan array binding signal (z-score),[7],-0.163
same,glycan array binding signal (z-score),[8],-0.222
same,glycan array binding signal (z-score),[9],-0.166
same,glycan array binding signal (z-score),[10],-0.092
same,glycan array binding signal (z-score),[11],-0.174
same,glycan array binding signal (z-score),[12],0.054
same,glycan array binding signal (z-score),[13],-0.146
same,glycan array binding signal (z-score),[14],-0.141
same,glycan array binding signal (z-score),[15],-0.204
same,glycan array binding signal (z-score),[16],-0.14
same,glycan array binding signal (z-score),[17],-0.137
same,glycan array binding signal (z-score),Neu5Ac(a2-6)GalNAc,0.091
same,glycan array binding signal (z-score),[18],-0.229
same,glycan array binding signal (z-score),[19],-0.141
same,glycan array binding signal (z-score),[20],-0.238
same,glycan array binding signal (z-score),Neu5Ac(a2-8)Neu5Ac,3.73
same,glycan array binding signal (z-score),[21],-0.232
same,glycan array binding signal (z-score),[22],-0.219
same,glycan array binding signal (z-score),[23],2.69
same,glycan array binding signal (z-score),[24],-0.141
same,glycan array binding signal (z-score),[25],-0.215
same,glycan array binding signal (z-score),[26],-0.154
same,glycan array binding signal (z-score),[27],8.52
same,glycan array binding signal (z-score),Neu5Ac(b2-6)GalNAc,0.975
same,glycan array binding signal (z-score),[28],0.314
same,glycan array binding signal (z-score),[29],-0.197
same,glycan array binding signal (z-score),[30],0.747
same,glycan array binding signal (z-score),[31],0.079
same,glycan array binding signal (z-score),[32],-0.23
same,glycan array binding signal (z-score),Neu5Gc(a2-3)Gal(b1-4)Glc,-0.207
same,glycan array binding signal (z-score),[33],-0.069
same,glycan array binding signal (z-score),[34],-0.221
same,glycan array binding signal (z-score),[35],-0.222
same,glycan array binding signal (z-score),Neu5Gc(a2-6)GalNAc,-0.157
same,glycan array binding signal (z-score),[36],-0.106
